In the supplement of paper PMC8728848:
The list shows a part of the results.

Assays:
Assay in all cases: glycan array binding signal (z-score within array); higher = stronger binding
Details in all cases: glycan notation: IUPAC condensed, linker removed
[1] = target: Fuc(a1-2)Gal6S(b1-3)GlcNAc6S
Method in brief: (§1)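 The binding signal is a Z-score computed within each array and averaged over linkers. Arrays of the same protein sequence at different concentrations or buffers were also averaged together. Data originate from 3228 arrays in the Consortium for Functional Glycomics database, kept only where the protein sequence was available.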

Fuc(a1-2)Gal6S(b1-4)Glc = target: Fuc(a1-2)Gal6S(b1-4)Glc
Method in brief: as §1

[2] = target: Fuc(a1-2)Gal6S(b1-4)Glc6S
Method in brief: as §1

Fuc(a1-2)[Gal(a1-3)]Gal = target: Fuc(a1-2)[Gal(a1-3)]Gal
Method in brief: as §1

[3] = target: Fuc(a1-2)[Gal(a1-3)]Gal(b1-3)GalNAc
Method in brief: as §1

[4] = target: Fuc(a1-2)[Gal(a1-3)]Gal(b1-3)GalNAc(b1-3)Gal(a1-4)Gal(b1-4)Glc
Method in brief: as §1

[5] = target: Fuc(a1-2)[Gal(a1-3)]Gal(b1-3)GlcNAc
Method in brief: as §1

[6] = target: Fuc(a1-2)[Gal(a1-3)]Gal(b1-3)GlcNAc(b1-2)Man(a1-3)[Fuc(a1-2)[Gal(a1-3)]Gal(b1-3)GlcNAc(b1-2)Man(a1-6)]Man(b1-4)GlcNAc(b1-4)GlcNAc
Method in brief: as §1

[7] = target: Fuc(a1-2)[Gal(a1-3)]Gal(b1-3)GlcNAc(b1-2)Man(a1-3)[Fuc(a1-2)[Gal(a1-3)]Gal(b1-3)GlcNAc(b1-2)Man(a1-6)]Man(b1-4)GlcNAc(b1-4)[Fuc(a1-6)]GlcNAc
Method in brief: as §1

[8] = target: Fuc(a1-2)[Gal(a1-3)]Gal(b1-3)GlcNAc(b1-3)GalNAc
Method in brief: as §1

[9] = target: Fuc(a1-2)[Gal(a1-3)]Gal(b1-3)GlcNAc(b1-6)GalNAc
Method in brief: as §1

[10] = target: Fuc(a1-2)[Gal(a1-3)]Gal(b1-4)Glc
Method in brief: as §1

[11] = target: Fuc(a1-2)[Gal(a1-3)]Gal(b1-4)GlcNAc
Method in brief: as §1

[12] = target: Fuc(a1-2)[Gal(a1-3)]Gal(b1-4)GlcNAc(b1-2)Man
Method in brief: as §1

[13] = target: Fuc(a1-2)[Gal(a1-3)]Gal(b1-4)GlcNAc(b1-2)Man(a1-3)[Fuc(a1-2)[Gal(a1-3)]Gal(b1-4)GlcNAc(b1-2)Man(a1-6)]Man(b1-4)GlcNAc(b1-4)GlcNAc
Method in brief: as §1

[14] = target: Fuc(a1-2)[Gal(a1-3)]Gal(b1-4)GlcNAc(b1-2)Man(a1-3)[Fuc(a1-2)[Gal(a1-3)]Gal(b1-4)GlcNAc(b1-2)Man(a1-6)]Man(b1-4)GlcNAc(b1-4)[Fuc(a1-6)]GlcNAc
Method in brief: as §1

[15] = target: Fuc(a1-2)[Gal(a1-3)]Gal(b1-4)GlcNAc(b1-3)GalNAc
Method in brief: as §1

[16] = target: Fuc(a1-2)[Gal(a1-3)]Gal(b1-4)GlcNAc(b1-3)[Fuc(a1-2)[Gal(a1-3)]Gal(b1-4)GlcNAc(b1-6)]GalNAc
Method in brief: as §1

[17] = target: Fuc(a1-2)[Gal(a1-3)]Gal(b1-4)GlcNAc(b1-6)GalNAc
Method in brief: as §1

[18] = target: Fuc(a1-2)[Gal(a1-3)]Gal(b1-4)[Fuc(a1-3)]Glc
Method in brief: as §1

[19] = target: Fuc(a1-2)[Gal(a1-3)]Gal(b1-4)[Fuc(a1-3)]GlcNAc
Method in brief: as §1

[20] = target: Fuc(a1-2)[Gal(a1-3)]Gal(b1-4)[Fuc(a1-3)]GlcNAc(b1-3)GalNAc
Method in brief: as §1

[21] = target: Fuc(a1-2)[Gal(a1-4)]Gal(b1-4)GlcNAc
Method in brief: as §1

[22] = target: Fuc(a1-2)[GalNAc(a1-3)]Gal
Method in brief: as §1

[23] = target: Fuc(a1-2)[GalNAc(a1-3)]Gal(b1-3)GalNAc(a1-3)[Fuc(a1-2)]Gal(b1-4)GlcNAc
Method in brief: as §1

[24] = target: Fuc(a1-2)[GalNAc(a1-3)]Gal(b1-3)GalNAc(b1-3)Gal(a1-4)Gal(b1-4)Glc
Method in brief: as §1

[25] = target: Fuc(a1-2)[GalNAc(a1-3)]Gal(b1-3)GlcNAc
Method in brief: as §1

[26] = target: Fuc(a1-2)[GalNAc(a1-3)]Gal(b1-3)GlcNAc(b1-2)Man(a1-3)[Fuc(a1-2)[GalNAc(a1-3)]Gal(b1-3)GlcNAc(b1-2)Man(a1-6)]Man(b1-4)GlcNAc(b1-4)GlcNAc
Method in brief: as §1

[27] = target: Fuc(a1-2)[GalNAc(a1-3)]Gal(b1-3)GlcNAc(b1-2)Man(a1-3)[Fuc(a1-2)[GalNAc(a1-3)]Gal(b1-3)GlcNAc(b1-2)Man(a1-6)]Man(b1-4)GlcNAc(b1-4)[Fuc(a1-6)]GlcNAc
Method in brief: as §1

[28] = target: Fuc(a1-2)[GalNAc(a1-3)]Gal(b1-3)GlcNAc(b1-3)GalNAc
Method in brief: as §1

[29] = target: Fuc(a1-2)[GalNAc(a1-3)]Gal(b1-3)GlcNAc(b1-6)GalNAc
Method in brief: as §1

[30] = target: Fuc(a1-2)[GalNAc(a1-3)]Gal(b1-4)Glc
Method in brief: as §1

[31] = target: Fuc(a1-2)[GalNAc(a1-3)]Gal(b1-4)GlcNAc
Method in brief: as §1

[32] = target: Fuc(a1-2)[GalNAc(a1-3)]Gal(b1-4)GlcNAc(b1-2)Man
Method in brief: as §1

[33] = target: Fuc(a1-2)[GalNAc(a1-3)]Gal(b1-4)GlcNAc(b1-2)Man(a1-3)[Fuc(a1-2)[GalNAc(a1-3)]Gal(b1-4)GlcNAc(b1-2)Man(a1-6)]Man(b1-4)GlcNAc(b1-4)GlcNAc
Method in brief: as §1

[34] = target: Fuc(a1-2)[GalNAc(a1-3)]Gal(b1-4)GlcNAc(b1-2)Man(a1-3)[Fuc(a1-2)[GalNAc(a1-3)]Gal(b1-4)GlcNAc(b1-2)Man(a1-6)]Man(b1-4)GlcNAc(b1-4)[Fuc(a1-6)]GlcNAc
Method in brief: as §1

[35] = target: Fuc(a1-2)[GalNAc(a1-3)]Gal(b1-4)GlcNAc(b1-3)Gal(b1-4)GlcNAc
Method in brief: as §1

[36] = target: Fuc(a1-2)[GalNAc(a1-3)]Gal(b1-4)GlcNAc(b1-3)Gal(b1-4)GlcNAc(b1-3)Gal(b1-4)GlcNAc
Method in brief: as §1

[37] = target: Fuc(a1-2)[GalNAc(a1-3)]Gal(b1-4)GlcNAc(b1-3)GalNAc
Method in brief: as §1

[38] = target: Fuc(a1-2)[GalNAc(a1-3)]Gal(b1-4)GlcNAc(b1-3)[Fuc(a1-2)[GalNAc(a1-3)]Gal(b1-4)GlcNAc(b1-6)]GalNAc
Method in brief: as §1

[39] = target: Fuc(a1-2)[GalNAc(a1-3)]Gal(b1-4)GlcNAc(b1-6)GalNAc
Method in brief: as §1

[40] = target: Fuc(a1-2)[GalNAc(a1-3)]Gal(b1-4)[Fuc(a1-3)]GlcNAc
Method in brief: as §1

[41] = target: Fuc(a1-2)[GalNAc(a1-3)]Gal(b1-4)[Fuc(a1-3)]GlcNAc(b1-3)GalNAc
Method in brief: as §1

[42] = target: Fuc(a1-2)[GalNAc(a1-4)]Gal(b1-4)GlcNAc
Method in brief: as §1

[43] = target: Fuc(a1-2)[GalNAc(b1-3)]Gal
Method in brief: as §1

B1: Pwp5 ND (Candida glabrata) (protein)
chain: MGSSHHHHHHSSGLVPRGSHMASANPVPLTNVCYFPEEYPRQAGFRAITAGLASTILQGSVDELLNYSGLSSLTTQQTTTTTPNFQLPTLPLPTNVYGLTVVPLYLLVQLQGYFVPPVSGQYTFSLENTNDAAIIFFGNPSAFPCGDLSAWPQASADDITVTDGTFPSRTLFLKAGVAYPMRISYYNSLGSGNLAVSFTDPGGTKRTNWNGYIWRYNSCSTCTYT
**Q.** Which results are given for B1?
**A.** glycan array binding signal (z-score) [1]: -0.05; glycan array binding signal (z-score) (Fuc(a1-2)Gal6S(b1-4)Glc): -0.301; glycan array binding signal (z-score) [2]: 2.41; glycan array binding signal (z-score) (Fuc(a1-2)[Gal(a1-3)]Gal): 0.713; glycan array binding signal (z-score) [3]: -0.5; glycan array binding signal (z-score) [4]: 1.64; glycan array binding signal (z-score) [5]: -0.191; glycan array binding signal (z-score) [6]: -0.273; glycan array binding signal (z-score) [7]: 0.055; glycan array binding signal (z-score) [8]: -0.472; glycan array binding signal (z-score) [9]: 0.623; glycan array binding signal (z-score) [10]: -0.483; glycan array binding signal (z-score) [11]: 2.52; glycan array binding signal (z-score) [12]: -0.169; glycan array binding signal (z-score) [13]: -0.49; glycan array binding signal (z-score) [14]: 0.284; glycan array binding signal (z-score) [15]: -0.32; glycan array binding signal (z-score) [16]: -0.58; glycan array binding signal (z-score) [17]: 0.176; glycan array binding signal (z-score) [18]: -0.527; glycan array binding signal (z-score) [19]: 0.754; glycan array binding signal (z-score) [20]: 0.256; glycan array binding signal (z-score) [21]: -0.594; glycan array binding signal (z-score) [22]: -0.293; glycan array binding signal (z-score) [23]: -0.621; glycan array binding signal (z-score) [24]: -0.583; glycan array binding signal (z-score) [25]: -0.482; glycan array binding signal (z-score) [26]: -0.485; glycan array binding signal (z-score) [27]: -0.533; glycan array binding signal (z-score) [28]: 0.59; glycan array binding signal (z-score) [29]: -0.27; glycan array binding signal (z-score) [30]: 0.002; glycan array binding signal (z-score) [31]: -0.391; glycan array binding signal (z-score) [32]: -0.569; glycan array binding signal (z-score) [33]: 0.049; glycan array binding signal (z-score) [34]: -0.369; glycan array binding signal (z-score) [35]: -0.244; glycan array binding signal (z-score) [36]: -0.616; glycan array binding signal (z-score) [37]: 0.252; glycan array binding signal (z-score) [38]: -0.328; glycan array binding signal (z-score) [39]: -0.11; glycan array binding signal (z-score) [40]: -0.827; glycan array binding signal (z-score) [41]: -0.156; glycan array binding signal (z-score) [42]: -0.172; glycan array binding signal (z-score) [43]: -0.624
